Results on 24 sequences are retold here after the supplement of paper PMC10338343.

± gives the standard deviation. This is a selection; strong and weak results do not stand in their true shares.

The subject of the assay is MIWI (PIWIL1) piRISC loaded with piRNA #1 (30 nt). In words: pre-steady-state target cleavage rate (min^-1); MIWI and MILI are mouse PIWI proteins and EfPiwi is from a freshwater sponge; tags in brackets are library labels; higher = faster piRNA-guided slicing of the target. As to conditions: guide: piRNA #1 5'p-UGAGGUAGUAGGUUGUAUAGUAUCCAGAGG; auxiliary factor: 500 nM mouse GTSF1. Summed up:
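With or without 500 nM GTSF1 partner protein, 1 nM active affinity-purified piRISC carrying one synthetic guide was mixed with 0.1 nM transcribed, DNA-blocked target RNA library in HEPES–potassium acetate buffer at 33 °C for 0–8 or 0–960 min. Uncleaved targets were sequenced and normalised to depth and to weakly complementary targets, three trials were pooled, and k3 was capped at 0.0001 min^-1. The pre-steady-state cleavage rate came from a burst-and-steady-state fit.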
Take GCUGUGGAUACUUUACAACCUACUACCUCA: the “pre-steady-state target cleavage rate” value was 1.62 ± 0.087.
Consider GGACUGGAUACUAUUCAACCUACUACGUCA, for which the “pre-steady-state target cleavage rate” value came to 0.389 ± 0.054.
As for GGAGUGGAUACUAUACAUCCUAGUACCUCA, the figure is 0.348 ± 0.049; as for GGAGACCAUACUUUACAACCUACUACGUCA, 0.731 ± 0.069.
On to CCUCUGGAUACAAUACAUCCUACUACCUCA, for which the “pre-steady-state target cleavage rate” value is 1.56 ± 0.11.
Turning to CCUCUGGAUACUAUACAACGUACAACCUCA, the “pre-steady-state target cleavage rate” value was 0.961 ± 0.098.
With GGAGACGAUACUAAACAAGCUACUACCUCA, the “pre-steady-state target cleavage rate” value is 0.959 ± 0.047.
Consider GGAGACCAUACUAUACAAUCUACUACCUCA, for which the “pre-steady-state target cleavage rate” value stood at 0.404 ± 0.024.
The result for GCUCUGGACACUAUACAACCUACUACCUCA reads 1.57 ± 0.11; that for “GGAGACCUAUGAAUACAACCUACAUGGAGA [g8:g18:cont:t1A]”, less than 0.0001.
As for GGUAUGGAUACUAUACAACCUACUACCUCA, the figure is 1.88 ± 0.11; as for GGUCUGGAUACUAUACAACCAACUUCCUCA, 0.00959 ± 0.0019; as for GGAGACCAUACUAAACAACCUACUACGUCA, 0.626 ± 0.045.
Regarding GGUCUGGAUACUAUACAACCUACUACUCA, the “pre-steady-state target cleavage rate” value turned out to be 0.315 ± 0.043.
On to GGAGACCUAACUAUACUACCUACUACCUCA, for which the “pre-steady-state target cleavage rate” value amounted to 0.227 ± 0.035.
The result for GCUGUGGAUACUAUACAACGUACUACCUCA reads 1.05 ± 0.065; that for GGAGACCUUAGUAUACAACCUACAACCUCA, 0.0975 ± 0.018.
For the sequence GGAGUGGAUACUAUACAACCUACUACCUAA, the “pre-steady-state target cleavage rate” value worked out at 0.653 ± 0.051.
For the sequence GGAGACGGUACUAUACAACCUACUACCUCA, the “pre-steady-state target cleavage rate” value came to 1.47 ± 0.079.
With GGAGUGGAUACUAUACAAGCUACUACCACA, the “pre-steady-state target cleavage rate” value stood at 0.465 ± 0.027.
As for GGAGACCUAUGAUAAGUACCUACUACCUCA, the figure is less than 0.0001; as for GGACUGGAUACUAAACAACCUACUACCUGA, 0.689 ± 0.14.
The result for GGAGAGGAUACUAUACAACCUACUACGUGA reads 0.0459 ± 0.0097; that for CCUCUGGAAACUAUACAACGUACUACCUCA, 1.03 ± 0.059.
